# Source: the supplement of paper PMC8728848
# The other results are listed elsewhere or left out.
# B1: CVN (Nostoc ellipsosporum), P81180 (protein)
# chain: LGKFSQTCYNSAIQGSVLTSTCERTNGGYNTSSIDLNSVIENVDGSLKWQPSNFIETCRNTQLAGSSELAAECKTRAQQFVSTKINLDDHIANIDGTLKYE
# Tests used:
# Experiment in all cases: glycan array binding signal (z-score within array); higher = stronger binding
# Conditions in all cases: glycan notation: IUPAC condensed, linker removed
# Gal(a1-3)Gal = molecular target: Gal(a1-3)Gal
# Method in brief: (§1)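 The binding signal is a Z-score computed within each array. Data were drawn from 3228 arrays in the Consortium for Functional Glycomics database, restricted to those with a known protein sequence. Scores were averaged over arrays of the same protein sequence at different concentrations or buffers, and over linkers, and negative values can be taken as non-binding.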
# Gal(a1-3)Gal(b1-3)GlcNAc = molecular target: Gal(a1-3)Gal(b1-3)GlcNAc
# Method in brief: as §1
# [1] = molecular target: Gal(a1-3)Gal(b1-3)GlcNAc(b1-2)Man(a1-3)[Gal(a1-3)Gal(b1-3)GlcNAc(b1-2)Man(a1-6)]Man(b1-4)GlcNAc(b1-4)GlcNAc
# Method in brief: as §1
# [2] = molecular target: Gal(a1-3)Gal(b1-3)GlcNAc(b1-3)GalNAc
# Method in brief: as §1
# [3] = molecular target: Gal(a1-3)Gal(b1-3)[Fuc(a1-4)]GlcNAc(b1-2)Man(a1-3)[Gal(a1-3)Gal(b1-3)[Fuc(a1-4)]GlcNAc(b1-2)Man(a1-6)]Man(b1-4)GlcNAc(b1-4)GlcNAc
# Method in brief: as §1
# Gal(a1-3)Gal(b1-4)Glc = molecular target: Gal(a1-3)Gal(b1-4)Glc
# Method in brief: as §1
# Gal(a1-3)Gal(b1-4)GlcNAc = molecular target: Gal(a1-3)Gal(b1-4)GlcNAc
# Method in brief: as §1
# [4] = molecular target: Gal(a1-3)Gal(b1-4)GlcNAc(b1-3)GalNAc
# Method in brief: as §1
# [5] = molecular target: Gal(a1-3)Gal(b1-4)[Fuc(a1-3)]GlcNAc
# Method in brief: as §1
# [6] = molecular target: Gal(a1-3)Gal(b1-4)[Fuc(a1-3)]GlcNAc(b1-2)Man(a1-3)[Gal(a1-3)Gal(b1-4)[Fuc(a1-3)]GlcNAc(b1-2)Man(a1-6)]Man(b1-4)GlcNAc(b1-4)GlcNAc
# Method in brief: as §1
# Gal(a1-3)GalNAc = molecular target: Gal(a1-3)GalNAc
# Method in brief: as §1
# [7] = molecular target: Gal(a1-3)[Gal(a1-4)]Gal(b1-4)GlcNAc
# Method in brief: as §1
# [8] = molecular target: Gal(a1-4)Gal(b1-3)GlcNAc(b1-2)Man(a1-3)[Gal(a1-4)Gal(b1-3)GlcNAc(b1-2)Man(a1-6)]Man(b1-4)GlcNAc(b1-4)GlcNAc
# Method in brief: as §1
# Gal(a1-4)Gal(b1-4)Glc = molecular target: Gal(a1-4)Gal(b1-4)Glc
# Method in brief: as §1
# Gal(a1-4)Gal(b1-4)GlcNAc = molecular target: Gal(a1-4)Gal(b1-4)GlcNAc
# Method in brief: as §1
# [9] = molecular target: Gal(a1-4)Gal(b1-4)GlcNAc(b1-2)Man(a1-3)[Gal(a1-4)Gal(b1-4)GlcNAc(b1-2)Man(a1-6)]Man(b1-4)GlcNAc(b1-4)GlcNAc
# Method in brief: as §1
# [10] = molecular target: Gal(a1-4)Gal(b1-4)GlcNAc(b1-3)Gal(b1-4)Glc
# Method in brief: as §1
# Gal(a1-4)GlcNAc = molecular target: Gal(a1-4)GlcNAc
# Method in brief: as §1
# Gal(a1-6)Glc = molecular target: Gal(a1-6)Glc
# Method in brief: as §1
# Gal(b1-2)Gal = molecular target: Gal(b1-2)Gal
# Method in brief: as §1
# Gal(b1-3)Gal = molecular target: Gal(b1-3)Gal
# Method in brief: as §1
# Gal(b1-3)Gal(b1-4)GlcNAc = molecular target: Gal(b1-3)Gal(b1-4)GlcNAc
# Method in brief: as §1
# [11] = molecular target: Gal(b1-3)Gal(b1-4)GlcNAc(b1-2)Man(a1-3)[Gal(b1-3)Gal(b1-4)GlcNAc(b1-2)Man(a1-6)]Man(b1-4)GlcNAc(b1-4)GlcNAc
# Method in brief: as §1
# Gal(b1-3)GalNAc = molecular target: Gal(b1-3)GalNAc
# Method in brief: as §1
# [12] = molecular target: Gal(b1-3)GalNAc(a1-3)[Fuc(a1-2)]Gal(b1-4)Glc
# Method in brief: as §1
# [13] = molecular target: Gal(b1-3)GalNAc(a1-3)[Fuc(a1-2)]Gal(b1-4)GlcNAc
# Method in brief: as §1
# [14] = molecular target: Gal(b1-3)GalNAc(b1-3)Gal(a1-4)Gal(b1-4)Glc
# Method in brief: as §1
# [15] = molecular target: Gal(b1-3)GalNAc(b1-4)Gal(b1-4)Glc
# Method in brief: as §1
# [16] = molecular target: Gal(b1-3)GalNAc(b1-4)[Neu5Ac(a2-3)]Gal(b1-4)Glc
# Method in brief: as §1
# Gal(b1-3)GlcNAc = molecular target: Gal(b1-3)GlcNAc
# Method in brief: as §1
# [17] = molecular target: Gal(b1-3)GlcNAc(a1-6)Gal(b1-4)GlcNAc
# Method in brief: as §1
# [18] = molecular target: Gal(b1-3)GlcNAc(b1-2)Man(a1-3)[Gal(b1-3)GlcNAc(b1-2)Man(a1-6)]Man(b1-4)GlcNAc(b1-4)GlcNAc
# Method in brief: as §1
# [19] = molecular target: Gal(b1-3)GlcNAc(b1-2)Man(a1-3)[Gal(b1-3)GlcNAc(b1-2)Man(a1-6)]Man(b1-4)GlcNAc(b1-4)[Fuc(a1-6)]GlcNAc
# Method in brief: as §1
# [20] = molecular target: Gal(b1-3)GlcNAc(b1-2)[Gal(b1-3)GlcNAc(b1-6)]Man(a1-6)[Gal(b1-3)GlcNAc(b1-2)Man(a1-3)]Man(b1-4)GlcNAc(b1-4)GlcNAc
# Method in brief: as §1
# [21] = molecular target: Gal(b1-3)GlcNAc(b1-3)Gal(b1-3)GlcNAc
# Method in brief: as §1
# [22] = molecular target: Gal(b1-3)GlcNAc(b1-3)Gal(b1-4)Glc
# Method in brief: as §1
# [23] = molecular target: Gal(b1-3)GlcNAc(b1-3)Gal(b1-4)GlcNAc
# Method in brief: as §1
# [24] = molecular target: Gal(b1-3)GlcNAc(b1-3)Gal(b1-4)GlcNAc(b1-6)[Gal(b1-3)GlcNAc(b1-3)]Gal(b1-4)Glc
# Method in brief: as §1
# [25] = molecular target: Gal(b1-3)GlcNAc(b1-3)Gal(b1-4)[Fuc(a1-3)]GlcNAc(b1-6)[Gal(b1-3)GlcNAc(b1-3)]Gal(b1-4)Glc
# Method in brief: as §1
# [26] = molecular target: Gal(b1-3)GlcNAc(b1-3)GalNAc
# Method in brief: as §1
# [27] = molecular target: Gal(b1-3)GlcNAc(b1-6)Gal(b1-4)GlcNAc
# Method in brief: as §1
# [28] = molecular target: Gal(b1-3)[Fuc(a1-4)]GlcNAc
# Method in brief: as §1
# [29] = molecular target: Gal(b1-3)[Fuc(a1-4)]GlcNAc(b1-2)Man(a1-3)[Gal(b1-3)[Fuc(a1-4)]GlcNAc(b1-2)Man(a1-6)]Man(b1-4)GlcNAc(b1-4)GlcNAc
# Method in brief: as §1
# [30] = molecular target: Gal(b1-3)[Fuc(a1-4)]GlcNAc(b1-2)Man(a1-3)[Gal(b1-3)[Fuc(a1-4)]GlcNAc(b1-2)Man(a1-6)]Man(b1-4)GlcNAc(b1-4)[Fuc(a1-6)]GlcNAc
# Method in brief: as §1
# [31] = molecular target: Gal(b1-3)[Fuc(a1-4)]GlcNAc(b1-3)Gal(b1-3)[Fuc(a1-4)]GlcNAc
# Method in brief: as §1
binder,measurement,setting,value
B1,glycan array binding signal (z-score),Gal(a1-3)Gal,-0.306
same,glycan array binding signal (z-score),Gal(a1-3)Gal(b1-3)GlcNAc,-0.296
same,glycan array binding signal (z-score),[1],0.269
same,glycan array binding signal (z-score),[2],-0.047
same,glycan array binding signal (z-score),[3],2.05
same,glycan array binding signal (z-score),Gal(a1-3)Gal(b1-4)Glc,-0.276
same,glycan array binding signal (z-score),Gal(a1-3)Gal(b1-4)GlcNAc,-0.304
same,glycan array binding signal (z-score),[4],-0.278
same,glycan array binding signal (z-score),[5],-0.3
same,glycan array binding signal (z-score),[6],-0.053
same,glycan array binding signal (z-score),Gal(a1-3)GalNAc,-0.303
same,glycan array binding signal (z-score),[7],-0.304
same,glycan array binding signal (z-score),[8],1.42
same,glycan array binding signal (z-score),Gal(a1-4)Gal(b1-4)Glc,-0.304
same,glycan array binding signal (z-score),Gal(a1-4)Gal(b1-4)GlcNAc,-0.306
same,glycan array binding signal (z-score),[9],-0.281
same,glycan array binding signal (z-score),[10],-0.307
same,glycan array binding signal (z-score),Gal(a1-4)GlcNAc,-0.304
same,glycan array binding signal (z-score),Gal(a1-6)Glc,-0.174
same,glycan array binding signal (z-score),Gal(b1-2)Gal,-0.303
same,glycan array binding signal (z-score),Gal(b1-3)Gal,-0.303
same,glycan array binding signal (z-score),Gal(b1-3)Gal(b1-4)GlcNAc,-0.292
same,glycan array binding signal (z-score),[11],-0.017
same,glycan array binding signal (z-score),Gal(b1-3)GalNAc,-0.305
same,glycan array binding signal (z-score),[12],-0.299
same,glycan array binding signal (z-score),[13],-0.299
same,glycan array binding signal (z-score),[14],-0.304
same,glycan array binding signal (z-score),[15],-0.307
same,glycan array binding signal (z-score),[16],-0.306
same,glycan array binding signal (z-score),Gal(b1-3)GlcNAc,-0.304
same,glycan array binding signal (z-score),[17],-0.303
same,glycan array binding signal (z-score),[18],0.898
same,glycan array binding signal (z-score),[19],1.13
same,glycan array binding signal (z-score),[20],1.59
same,glycan array binding signal (z-score),[21],-0.304
same,glycan array binding signal (z-score),[22],-0.283
same,glycan array binding signal (z-score),[23],-0.296
same,glycan array binding signal (z-score),[24],-0.301
same,glycan array binding signal (z-score),[25],-0.265
same,glycan array binding signal (z-score),[26],-0.217
same,glycan array binding signal (z-score),[27],-0.307
same,glycan array binding signal (z-score),[28],-0.305
same,glycan array binding signal (z-score),[29],0.535
same,glycan array binding signal (z-score),[30],3.33
same,glycan array binding signal (z-score),[31],0.066
